Reference: PubChem BioAssay AID504333 (National Center for Advancing Translational Sciences (NCATS), 2011)
About 16,000 (4.4%) of roughly 360,000 compounds were called active. Inconclusive means that the source gave no clear call. Such entries were picked first, then a sample of the others. Calls come from the whole dose curve; as a rule, active = well fitted inhibition curve with a large enough effect; inconclusive = small, poorly fitted or top-dose-only effect; inactive = no such curve, though single readings can be large or run the other way. Potencies of inconclusive entries are doubtful fits and often do not repeat.

Molecular target: Bromodomain adjacent to zinc finger domain protein 2B (Homo sapiens) (UniProt Q9UIF8)
Test: qHTS Assay for Inhibitors of BAZ2B; note: nearly all actives have a fitted effect of over 60% in size
Details: AlphaScreen BAZ2B-H3K14Ac peptide displacement; series mostly up to 114 µM
In short: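 BAZ2B 50 nM plus b-H3(5-23)K14Ac 50 nM, PBS pH 7.4/0.01% Tween-20, 30 min RT; compound added (max 110 uM), 30 min RT; streptavidin donor/Ni-chelate acceptor beads 10 ug/mL final, 20 min dark; AlphaScreen read.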
Potency is the fitted concentration of half-maximal effect; tags give direction and shape of the fitted curve.

Chain of UniProt Q9UIF8 (Q9UIF8 whole entry, looked up, the tested form may be a part): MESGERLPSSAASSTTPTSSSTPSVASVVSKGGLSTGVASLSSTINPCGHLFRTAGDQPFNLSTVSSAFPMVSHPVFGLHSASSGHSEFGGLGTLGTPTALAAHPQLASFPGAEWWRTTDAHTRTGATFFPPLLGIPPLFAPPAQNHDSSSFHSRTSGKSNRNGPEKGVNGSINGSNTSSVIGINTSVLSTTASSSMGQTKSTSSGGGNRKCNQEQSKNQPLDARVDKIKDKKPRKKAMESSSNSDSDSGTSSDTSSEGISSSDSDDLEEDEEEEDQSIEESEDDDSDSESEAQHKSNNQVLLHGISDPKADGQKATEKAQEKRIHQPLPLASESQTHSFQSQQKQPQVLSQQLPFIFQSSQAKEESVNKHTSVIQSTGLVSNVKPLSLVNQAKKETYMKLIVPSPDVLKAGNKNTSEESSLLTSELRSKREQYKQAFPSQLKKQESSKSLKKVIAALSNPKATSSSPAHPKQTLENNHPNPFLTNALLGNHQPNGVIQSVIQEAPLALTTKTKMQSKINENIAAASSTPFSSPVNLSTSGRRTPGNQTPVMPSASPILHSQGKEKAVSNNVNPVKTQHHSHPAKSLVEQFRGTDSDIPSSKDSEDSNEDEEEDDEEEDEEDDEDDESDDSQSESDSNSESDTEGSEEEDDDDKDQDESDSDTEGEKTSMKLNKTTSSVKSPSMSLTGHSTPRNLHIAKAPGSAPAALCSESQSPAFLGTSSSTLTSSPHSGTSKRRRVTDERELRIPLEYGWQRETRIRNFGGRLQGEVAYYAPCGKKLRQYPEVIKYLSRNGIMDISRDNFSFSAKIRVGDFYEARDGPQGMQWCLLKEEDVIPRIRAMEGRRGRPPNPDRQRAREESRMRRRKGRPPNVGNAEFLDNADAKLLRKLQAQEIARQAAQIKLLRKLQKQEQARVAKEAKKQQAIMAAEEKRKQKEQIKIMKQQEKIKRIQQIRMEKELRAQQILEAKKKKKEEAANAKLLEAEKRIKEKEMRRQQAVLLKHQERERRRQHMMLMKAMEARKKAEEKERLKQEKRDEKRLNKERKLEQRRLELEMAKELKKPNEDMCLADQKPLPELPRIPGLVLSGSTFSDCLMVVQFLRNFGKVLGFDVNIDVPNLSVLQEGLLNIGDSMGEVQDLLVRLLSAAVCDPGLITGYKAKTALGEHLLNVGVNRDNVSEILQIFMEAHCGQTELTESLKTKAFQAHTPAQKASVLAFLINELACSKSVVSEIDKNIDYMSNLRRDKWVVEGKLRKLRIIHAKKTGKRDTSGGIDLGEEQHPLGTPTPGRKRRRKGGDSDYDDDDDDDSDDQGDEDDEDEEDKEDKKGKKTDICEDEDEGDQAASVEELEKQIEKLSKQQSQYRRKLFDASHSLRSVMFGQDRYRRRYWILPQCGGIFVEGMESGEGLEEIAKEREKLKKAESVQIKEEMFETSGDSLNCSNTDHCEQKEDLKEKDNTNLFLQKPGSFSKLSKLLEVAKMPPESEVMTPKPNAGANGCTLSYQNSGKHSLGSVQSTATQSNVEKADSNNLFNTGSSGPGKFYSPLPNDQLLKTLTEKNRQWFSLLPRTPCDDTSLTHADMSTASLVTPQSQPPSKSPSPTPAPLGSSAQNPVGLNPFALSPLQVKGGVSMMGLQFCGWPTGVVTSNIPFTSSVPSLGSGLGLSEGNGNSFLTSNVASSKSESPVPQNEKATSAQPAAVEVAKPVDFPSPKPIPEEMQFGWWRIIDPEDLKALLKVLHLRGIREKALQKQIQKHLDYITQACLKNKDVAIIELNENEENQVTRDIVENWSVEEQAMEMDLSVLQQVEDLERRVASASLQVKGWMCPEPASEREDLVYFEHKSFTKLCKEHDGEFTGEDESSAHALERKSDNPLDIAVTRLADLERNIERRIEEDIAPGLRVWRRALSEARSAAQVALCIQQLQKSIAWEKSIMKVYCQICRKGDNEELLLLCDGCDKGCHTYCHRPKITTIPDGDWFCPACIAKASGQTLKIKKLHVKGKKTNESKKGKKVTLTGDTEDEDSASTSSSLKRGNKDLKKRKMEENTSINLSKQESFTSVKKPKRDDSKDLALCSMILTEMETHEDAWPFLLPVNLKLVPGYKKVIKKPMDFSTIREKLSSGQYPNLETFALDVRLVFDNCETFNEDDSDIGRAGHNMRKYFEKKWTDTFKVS

Structure (SMILES) | Potency
COc1ccc(OC)c(NC(=S)NCc2ccccc2OC)c1 | inconclusive: 50.1 µM [inhibitor, partial curve]
CCOC(=O)/C(=N\Nc1cc(C(F)(F)F)ccc1Cl)N(CC)CC | inconclusive: 39.8 µM [inhibitor, partial curve]
O=C(O)c1ccc(Cl)c(NC(=S)NC(=O)c2cccc(COc3ccccc3)c2)c1 | active: 50.1 µM
O=C(CCn1nc(-c2ccc(Cl)cc2)ccc1=O)N1CCOCC1 | inconclusive: 89.1 µM [inhibitor, single point]
COc1ccc(NC2CCCN(C(=O)COc3ccc(Cl)cc3C)C2)cc1OC (stereo not given) | inconclusive: 50.1 µM [inhibitor, partial curve]
O=S(=O)(c1cccc(-c2nc3n(n2)Cc2ccccc2-3)c1)N1CCCCC1 | inconclusive: 89.1 µM [inhibitor, single point]
O=[N+]([O-])c1ccccc1CNC1CCCc2ccccc21 (stereo not given) | active: 56.2 µM
COc1cc(OC)cc(C(=O)NC(=S)N2CCCCCC2)c1 | inconclusive: 44.7 µM [inhibitor, partial curve]
O=[N+]([O-])c1ccc(/C=N/Nc2nc(N3CCCCC3)nc(N3CCCCC3)n2)o1 | inconclusive: 79.4 µM [inhibitor, single point]
O=C(CSc1nc2ccccc2o1)NC(=O)NCc1ccco1 | inconclusive: 100 µM [inhibitor, single point]
CCOC(=O)c1c(-c2ccccc2)oc2ccc(OCC(O)CNCCN(C)C)cc12 (stereo not given) | inconclusive: 63.1 µM [inhibitor, single point]
CN(C)S(=O)(=O)c1ccc(/C(O)=C2/C(=O)C(=O)N(Cc3cccnc3)C2c2ccco2)cc1 (stereo not given) | inconclusive: 89.1 µM [inhibitor, single point]
Cc1ncoc1C(=O)N1CCCC(C(=O)c2ccc3c4c(cccc24)CC3)C1 (stereo not given) | inconclusive: 20 µM [inhibitor, full curve]
Cc1ccc(-c2noc(CCC(=O)NCc3ccco3)n2)cc1 | inconclusive: 100 µM [inhibitor, single point]
COc1ccc(/C=C2\SC(=O)N(CCC(=O)Nc3ccc(S(=O)(=O)Nc4nccs4)cc3)C2=O)cc1 | inactive
COC(=O)c1ccc(COc2ccccc2/C=C(\C#N)C(=O)Nc2ccc(C)cc2C)cc1 | inconclusive: 89.1 µM [inhibitor, single point]
CCCCc1ccc(/C(C)=N/Nc2cc(N3CCOCC3)nc(C)n2)cc1 | inconclusive: 70.8 µM [inhibitor, single point]
CCOC(=O)C1=C(C)N(CC)C(=S)NC1c1ccccc1OC(F)F (stereo not given) | inconclusive: 56.2 µM [inhibitor, partial curve]
CC(C)c1ccc(NC2CCCN(C(=O)c3ccoc3)C2)cc1 (stereo not given) | inconclusive: 50.1 µM [inhibitor, partial curve]
COc1ccc(N2CCN(C(=O)C(CC(C)C)NS(=O)(=O)c3ccc4nc(C)sc4c3)CC2)cc1 (stereo not given) | inconclusive: 28.2 µM [inhibitor, single point]
NS(=O)(=O)c1ccc(NC(=S)NC2CC2)cc1 | inactive
COCc1cc(C)nc(SCC(=O)Nc2cc3c(cc2C#N)OCO3)c1C#N | inactive
CCOC(=O)C1=C(CN2c3ccccc3CC2C)NC(=O)NC1c1ccccc1 (stereo not given) | active: 50.1 µM
O=C(C1=C[C@@H]2[C@H]3C(=O)N(c4ccccc4)C(=O)[C@H]3[C@@H](C(=O)c3ccc(Cl)cc3)N2C=C1)c1ccccc1 | inconclusive: 89.1 µM [inhibitor, single point]

Structure (SMILES) | Potency
CCOC(=O)c1ccc(-n2c(CCC(=O)O)ccc2-c2ccccc2)cc1O | active: 44.7 µM
CC1CC(C)CN(C(=O)Nc2ccccc2F)C1 (stereo not given) | inconclusive: 39.8 µM [inhibitor, single point]
Cc1cccc(NC(=S)NC(=O)/C=C/c2ccco2)n1 | inconclusive: 44.7 µM [inhibitor, partial curve]
COc1ccc(C(=O)NCC(=O)N/N=C/C(C)=C/c2ccco2)cc1OC | inactive
COc1ccccc1OCCn1ccnc1 | inconclusive: 89.1 µM [inhibitor, single point]
COc1ccc(N(CC(=O)Nc2ccc(F)c(F)c2)S(=O)(=O)c2c(C)n[nH]c2C)cc1 | inactive
CC(C)(C)C(=O)NCCn1ccc2ccccc21 | inactive
CCOc1cc2c(cc1OCC)C(C(=O)O)C(c1cc(OC)c(OC)c(OC)c1)N(C)C2=O (stereo not given) | inconclusive: 39.8 µM [inhibitor, single point]
CCc1ccc(O)c(N=Cc2ccccc2O)c1 | inconclusive: 79.4 µM [inhibitor, single point]
COc1ccc(-n2c(=S)[nH]c3cc(C(=O)NCCCN4CCOCC4)ccc3c2=O)cc1OC | inconclusive: 89.1 µM [inhibitor, single point]
Cc1ccc(/C=C/C(=O)N2CCN(c3ncccn3)CC2)o1 | inactive
CSCCC(NS(=O)(=O)c1ccc2c(c1)oc(=O)n2C)C(=O)NCc1ccc(Cl)cc1 (stereo not given) | inactive
CCOC(=O)N1CCN(S(=O)(=O)c2ccc(C(=O)Nc3nnc(C4CC4)o3)cc2)CC1 | active: 22.4 µM
COc1ccc(NC(=O)/C(C#N)=C\c2ccc(OCc3ccc(C(=O)O)cc3)c(OC)c2)cc1 | inconclusive: 44.7 µM [inhibitor, partial curve]
COc1ccc(S(=O)(=O)NCc2cccn2Cc2cc(C)ccc2C)cc1OC | inconclusive: 44.7 µM [inhibitor, partial curve]
CC(=O)C1=C(O)C(=O)N(c2ccc(Br)cn2)C1c1ccc(F)cc1 (stereo not given) | active: 56.2 µM
O=C(NCCCN1CCCC1=O)c1ccc2c(=O)n(-c3ccccc3F)c(=S)[nH]c2c1 | inconclusive: 89.1 µM [inhibitor, single point]
Cn1c(=O)c2[nH]c(N=NNc3ccccc3F)nc2n(C)c1=O | active: 20 µM
COc1cccc(NC(=O)Cn2c(=O)n(Cc3ccc(F)cc3)c(=O)c3sc4ccccc4c32)c1 | inactive
O=C(NCCCN1CCN(c2ccccc2F)CC1)c1ccc2nc(CCc3ccccc3)oc2c1 | inconclusive: 28.2 µM [inhibitor, full curve]
Cc1cc(C(=O)N/N=C/c2cc(Cl)cc([N+](=O)[O-])c2O)n[nH]1 | active: 50.1 µM
COc1ccc(CN=Cc2[nH]c3ccc(Br)c(Cl)c3c2O)cc1 | active: 44.7 µM
OC(COCc1ccc2c(c1)OCO2)CN1CCCCC1 (stereo not given) | inactive
COc1ccc(CCNC2CC(=O)N(CCc3ccc(OC)c(OC)c3)C2=O)cc1OC (stereo not given) | inconclusive: 89.1 µM [inhibitor, single point]

Structure (SMILES) | Potency
CCN(CC)C(=O)c1ccc(C(=O)c2c(C)cc(C)cc2C)cc1 | inactive
Clc1ccccc1-c1nn2c(-c3ccccn3)nnc2s1 | active: 79.4 µM
O=C(NCCc1ccccc1)Nc1ccc2c(c1)OCO2 | inactive
COc1ccc(S(=O)(=O)n2nc(-c3ccco3)nc2NCc2ccc(C(C)C)cc2)cc1 | inactive
O=C(CNC(=O)c1ccccc1)NCCc1ccc(O)c(O)c1 | inactive
CSCC[C@H](NC(=O)[C@@H]1Cc2ccccc2CN1)C(=O)Nc1ccc2c(c1)OCCO2 | inconclusive: 79.4 µM [inhibitor, partial curve]
CCc1ccc(NC(=O)CSc2nc(-c3ccc(C)cc3)nc3c2Cc2c(CO)cnc(C)c2O3)cc1 | active: 50.1 µM
CCN1CCN(C2=CC3=CC(=C(C#N)C#N)CCC3CC2)CC1 (stereo not given) | inactive
O=S(=O)(NC1CC(NS(=O)(=O)OCC(Cl)(Cl)Cl)C2CCCCC12)OCC(Cl)(Cl)Cl (stereo not given) | inconclusive: 89.1 µM [inhibitor, single point]
O=Cc1cc(Cl)ccc1OCCN1CCC(Cc2ccccc2)CC1 | inconclusive: 39.8 µM [inhibitor, partial curve]
Cc1ccc(-c2nnc(N3CC(C)OC(C)C3)c3ccccc23)cc1 (stereo not given) | inconclusive: 89.1 µM [inhibitor, single point]
Cc1ccc2c(c1)C1C=CCC1C(C(=O)O)N2 (stereo not given) | active: 6.31 µM
NC(=O)CC[C@H](NC(=O)c1ccc(F)cc1)C(=O)OCC(=O)Nc1c(F)c(F)c(F)c(F)c1F | inactive
Cn1c(=O)n(C)c2cc([N+](=O)[O-])c(N3CCN(S(C)(=O)=O)CC3)cc21 | active: 50.1 µM
Cc1ccc2[nH]c3c(N4CCN(Cc5ccc6c(c5)OCO6)CC4)ncnc3c2c1 | inconclusive: 70.8 µM [inhibitor, single point]
Cc1ccc(CNc2oc(-c3cccs3)nc2C#N)cc1 | inconclusive: 39.8 µM [inhibitor, partial curve]
C[C@]12C(=O)N(c3ccc(C(F)(F)F)cc3)C(=O)N1[C@@H]1c3ccccc3OC[C@@H]1[C@H]2c1ccccc1 | inconclusive: 89.1 µM [inhibitor, single point]
CCC(Sc1ncnc2sc(C)c(C)c12)C(=O)OC (stereo not given) | inconclusive: 100 µM [inhibitor, single point]
CCn1c(=O)c(CCC(=O)N2CCN(c3ccccn3)CC2)c(C)c2c(C)nn(-c3cccc(C)c3)c21 | inconclusive: 8.91 µM [inhibitor, partial curve]
COc1ccc(N(CC(=O)Nc2ccc(C)cn2)S(=O)(=O)c2c(C)noc2C)cc1 | inconclusive: 50.1 µM [inhibitor, partial curve]
CC1=C(C#N)C(=O)NC(=O)/C1=C/c1ccc(-c2ccc(S(N)(=O)=O)cc2)o1 | active: 44.7 µM
COc1ccc(CC(=O)OCC(=O)Nc2cc(S(=O)(=O)N3CCOCC3)ccc2N2CCCC2)cc1 | inactive
